Source: US4113858A, “Novel compounds, compositions and methods of their use” (St. Luke's Hospital, priority 1976, dated 1978)

Legend:
Guinea Pigs [1] = assay: Specificity of delayed type skin hypersensitivity response (Table III); type: in vivo
Procedure: Guinea pigs are sensitized (10 animals/group) with 500 μg each of compound (V) (prepared according to Example 1, supra.), myelin basic protein (BP), the alpha -1 component of calf skin (α1 -- calf) and the alpha -1 component of guinea pig collagen (α1 -- g.p.), emulsified in complete Freund's adjuvant. At day 11 after sensitization, the animals were skin tested with various doses of the specific antigens dissolved in saline. Positive responses are indicated by erythema at the skin test site. A control group is administered saline.

Guinea Pigs [2] = type: in vivo
Description: (§1) prepared according to Example 2, supra.

Rabbits [3] = type: in vivo
Description: as §1

Guinea Pigs [4] = type: in vivo; remark: listed apart in the source
Procedure: At day zero group I animals except group 1B guinea pigs are injected subcutaneously with 250 micrograms of formula (IX) emulsified in incomplete Freund's adjuvant as carrier.

Rabbits [5] = type: in vivo; remark: listed apart in the source
Procedure: Group III animals except group IIIB rabbits are injected intraveneously with 1500 micrograms of formula (IX).

Guinea Pigs [6] = assay: Suppression of disease (EAE), Table VI; type: in vivo
Procedure: In Table VI below, suppression type experiments are conducted on guinea pigs to show the effect of administering the disease producing native peptide (formula X). The animals are injected with the synthetic compounds IX of the invention herein at varying periods after the initial injection of the native peptide and using varying dosages.
Four groups of guinea pigs are employed. Group IV animals received neither the disease inducing native peptide (formula X) nor the synthetic compound (IX) of the invention and served as a second control group. Group III animals are treated with the native peptide (formula X) only at day zero by the injection of 25 micrograms emulsified in complete Freund's adjuvant and served as a first control group. Group I animals are injected with 25 micrograms of the disease inducing native peptide (formula X) emulsified in complete Freund's adjuvant at day zero. Also, group I animals received daily injections for 14 consecutive days of 250 micrograms each of formula I dissolved in saline administered intraveneously, the first injection being administered starting day zero. Group II animals receive the identical treatment of group I animals except group II animals receive the initial injection of formula 1 at day 7 and continued daily for 14 consecutive days, each injection containing 250 micrograms of formula (IX) in saline for a total of 3,500 micrograms.
Eighty percent of the first control group show evidence of disease within 16 days post sensitization and die by day 20. The second control group remains healthy throughout the experiment. Experiment groups I and II loose about 10% of body weight at day 14-16 and begin to gain weight thereafter.

[7] = test system: guinea pigs, rabbits and rats; details: lesions characteristic of the disease
Guinea Pigs [8] = assay: Non-encephalitogenic properties of Compound V, disease index (Table II); type: in vivo; details: Day 30; 0.025 mg antigen in CFA, single administration
Description: A number of guinea pigs are divided into equal groups I, II, III, IV, V, VI and VII. Each of groups I, II, III and IV are given a single subcutaneous administration of the compound (V) (formula: H -- Phe -- Ser -- Trp -- Gln -- Lys )4 Gly -- OH) prepared according to Example 1. supra. The dose administered, in Complete Freund's adjuvant and the disease index (number of animals showing disease symptons/number tested) obtained after 30 and 120 days, respectfully, are given in Table II below. Groups, V, VI and VII serve as controls. Group V received a single administration of the myelin basic protein (BP), group VI received a single administration of peptide E (E), the encephalitogenic region derived from the encephalitogenic basic protein. Group VII received a single administration of Complete Freund's adjuvant alone.
The figures show the number of diseased guinea pigs per number tested. The disease index for experimental allergic encephalomyelitis (EAE) is reported in terms of clinical and histophathological criteria by day 30 following sensitization.

Guinea Pigs [9] = test system: Guinea Pigs
[10] = in animals sensitized with compound V or BP
[11] = 30 days, 500 μg single s.c. dose in complete Freund's adjuvant
[12] = 90 days, 500 μg single s.c. dose in complete Freund's adjuvant
[13] = Group 5: challenge 100 μg BP in FCA, treated with FIA only
[14] = Group 7: challenge 150 μg BP in FCA, treated with FIA only
[15] = Group 8: challenge 150 μg BP in FCA, treated with saline only
[16] = Group 10: challenge 150 μg BP, treatment 1 mg BP, late stage
[17] = Group 11: challenge 150 μg BP in FCA, treated with FIA only, late stage

α1 -calf: the alpha -1 component of calf skin [reference compound]
delayed skin response elicited (Guinea Pigs [1]; [10]): did not elicit skin hypersensitivity responses

GGWGGGGQK [Formula (IX), H -- (Gly)2 -- Trp -- (Gly)4 -- Gln -- Lys -- OH]
Clinical Disease Score (Guinea Pigs [2]; 30 days, 10 μg single s.c. dose in complete Freund's adjuvant, diseased/tested): 0/15 | Clinical Disease Score (Guinea Pigs [2]; [11]): 0/15 | Clinical Disease Score (Guinea Pigs [2]; 90 days, 10 μg single s.c. dose in complete Freund's adjuvant): 0/15 | Clinical Disease Score (Guinea Pigs [2]; [12]): 0/15 | Clinical Disease Score (Rabbits [3]; [11]): 0/10 | Clinical Disease Score (Rabbits [3]; 30 days, 1500 μg single s.c. dose in complete Freund's adjuvant): 0/10 | Clinical Disease Score (Rabbits [3]; [12]): 0/10 | Clinical Disease Score (Rabbits [3]; 90 days, 1500 μg single s.c. dose in complete Freund's adjuvant): 0/10 | Clinical Disease Score (Guinea Pigs [4]; Day 37, Group IA: 250 μg Formula IX daily day 0-14, no challenge): 0/15 | Clinical Disease Score (Guinea Pigs [4]; Day 97, Group I: 250 μg Formula IX daily day 0-14, challenge 25 μg Formula X day 7): 0/15 | Clinical Disease Score (Guinea Pigs [4]; Day 97, Group IA: 250 μg Formula IX daily day 0-14, no challenge): 0/15 | Clinical Disease Score (Rabbits [5]; Day 37, Group III: 1500 μg Formula IX i.v. daily day 0-14, challenge 50 μg Formula XI day 7): 0/15 | Clinical Disease Score (Rabbits [5]; Day 37, Group IIIA: 1500 μg Formula IX daily day 0-14, no challenge): 0/15 | Clinical Disease Score (Rabbits [5]; Day 97, Group III: 1500 μg Formula IX daily day 0-14, challenge 50 μg Formula XI day 7): 0/15 | Clinical Disease Score (Rabbits [5]; Day 97, Group IIIA: 1500 μg Formula IX daily day 0-14, no challenge): 0/15 | Clinical Disease Score (Guinea Pigs [6]; 16 Days, Group I: 25 μg formula X in CFA day 0, 250 μg formula IX i.v. in saline daily day 0-14): 0/15 | Clinical Disease Score (Guinea Pigs [6]; 16 Days, Group II: 25 μg formula X in CFA day 0, 250 μg formula IX daily day 7-21): 0/15 | Clinical Disease Score (Guinea Pigs [6]; 30 Days, Group I: formula X day 0, 250 μg formula IX daily day 0-14): 0/15 | Clinical Disease Score (Guinea Pigs [6]; 30 Days, Group II: formula X day 0, 250 μg formula IX daily day 7-21): 0/15 | Clinical Disease Score (Guinea Pigs [6]; 90 Days, Group I: formula X day 0, 250 μg formula IX daily day 0-14): 0/15 | Clinical Disease Score (Guinea Pigs [6]; 90 Days, Group II: formula X day 0, 250 μg formula IX daily day 7-21): 0/15 | loss of body weight (Guinea Pigs [6]; groups I and II, day 14-16, weight gain thereafter): about 10% | other clinical symptoms of the disease (Guinea Pigs [6]; groups I and II, period of three months): No other clinical symptoms of the disease are apparent | Clinical Disease Score (Lewis Rats; 30 days, 100 μg single s.c. dose in complete Freund's adjuvant): 0/10 | Clinical Disease Score (Lewis Rats; 30 days, 250 μg single s.c. dose in complete Freund's adjuvant): 0/10 | Clinical Disease Score (Lewis Rats; 90 days, 100 μg single s.c. dose in complete Freund's adjuvant): 0/10 | Clinical Disease Score (Lewis Rats; 90 days, 250 μg single s.c. dose in complete Freund's adjuvant): 0/10 | histological examination of brain and spinal cord sections [7]: absence of lesions characteristic of the disease | Clinical Disease Score (Rats; Day 37, Group II: 150 μg Formula IX s.c. in saline daily day 0-14, challenge 50 μg B.P. day 7): 0/15 | Clinical Disease Score (Rats; Day 37, Group IIA: 150 μg Formula IX daily day 0-14, no challenge): 0/15 | Clinical Disease Score (Rats; Day 97, Group II: 150 μg Formula IX daily day 0-14, challenge 50 μg B.P. day 7): 0/15 | Clinical Disease Score (Rats; Day 97, Group IIA: 150 μg Formula IX daily day 0-14, no challenge): 0/15

TTHYGSLPQK [Formula (XI), H -- Thr -- Thr -- His -- Tyr -- Gly -- Ser -- Leu -- Pro -- Gln -- Lys -- OH, reference compound]
Clinical Disease Score (Rabbits [3]; 30 days, 50 μg (Group IV)): 12/15 | Clinical Disease Score (Rabbits [3]; 90 days, 50 μg (Group IV)): 13/15 | Clinical Disease Score (Rabbits [5]; Day 37, Group IIIB: 50 μg Formula XI day 7 only): 12/15 | Clinical Disease Score (Rabbits [5]; Day 97, Group IIIB: 50 μg Formula XI day 7 only): 13/15

FSWGAEGQK [Formula (X), H -- Phe -- Ser -- Trp -- Gly -- Ala -- Glu -- Gly -- Gln -- Lys -- OH, reference compound]
Clinical Disease Score (Guinea Pigs [2]; 30 days, 20 μg (Group IV)): 14/15 | Clinical Disease Score (Guinea Pigs [2]; 90 days, 20 μg (Group IV)): 15/15 | Clinical Disease Score (Guinea Pigs [4]; Day 37, Group IB: carrier only, 25 μg Formula X day 7): 13/15 | Clinical Disease Score (Guinea Pigs [4]; Day 97, Group IB: carrier only, 25 μg Formula X day 7): 13/15 | Clinical Disease Score (Guinea Pigs [6]; 16 Days, Group III: 25 μg formula X in CFA day 0 only): 12/15 | Clinical Disease Score (Guinea Pigs [6]; 30 Days, Group III: 25 μg formula X day 0 only): 12/15 | Clinical Disease Score (Guinea Pigs [6]; 90 Days, Group III: 25 μg formula X day 0 only): 12/15 | animals showing evidence of disease within 16 days post sensitization and dying by day 20 (Guinea Pigs [6]; first control group (Group III), 25 micrograms formula X only): Eighty

B1: Basic Protein: native protein isolated from bovine myelin known to induce disease (EAE) (protein, UniProt P02687 1-169, looked up)
Myelin basic protein: AAQKRPSQRSKYLASASTMDHARHGFLPRHRDTGILDSLGRFFGSDRGAPKRGSGKDGHHAARTTHYGSLPQKAQGHRPQDENPVVHFFKNIVTPRTPPPSQGKGRGLSLSRFSWGAEGQKPGFGYGGRASDYKSAHKGLKGHDAQGTLSKIFKLGGRDSRSGSPMARR
Disease Index (Guinea Pigs [8]): 9/10 | delayed skin response elicited (Guinea Pigs [1]; [10]): positive delayed skin responses | delayed skin response elicited (Guinea Pigs [1]; in animals sensitized with the α1-calf or α1-g.p. component of skin collagen): negative skin responses | Clinical Disease Score (Lewis Rats; 30 days, 50 μg (Group IV)): 8/10 | Clinical Disease Score (Lewis Rats; 90 days, 50 μg (Group IV)): 10/10 | Clinical Disease Score (Rats; Day 37, Group IIB: carrier only, 50 μg B.P. day 7): 13/15 | Clinical Disease Score (Rats; Day 97, Group IIB: carrier only, 50 μg B.P. day 7): 13/15 | Clinical EAE (Guinea Pigs [9]; [13]): 4/4 | Histological EAE (Guinea Pigs [9]; [13]): 4/4 | Clinical EAE (Guinea Pigs [9]; [14]): 5/5 | Histological EAE (Guinea Pigs [9]; [14]): 5/5 | Clinical EAE (Guinea Pigs [9]; [15]): 6/6 | Histological EAE (Guinea Pigs [9]; [15]): 6/6 | Clinical EAE (Guinea Pigs [9]; [16]): 4/4 | Histological EAE (Guinea Pigs [9]; [16]): 3/4 | Reversal clinical EAE (Guinea Pigs [9]; Group 10: challenge 150 μg BP, treatment 1 mg BP, late stage, listed as BP): 2/4 | Reversal clinical EAE (Guinea Pigs [9]; Group 10: challenge 150 μg BP, treatment 1 mg BP, late stage, listed as bovine BP): partially successful in reversing the disease | Clinical EAE (Guinea Pigs [9]; [17]): 7/7 | Histological EAE (Guinea Pigs [9]; [17]): 7/7

Where two headings read alike, the source gives them in different places. Ends that are not written are not given here.
